Source: PubChem BioAssay AID504845 (National Center for Advancing Translational Sciences (NCATS), 2011)
The whole screen tested about 390,000 compounds, of which about 150 (0.038%) were called active. Inconclusive means that the source gave no clear call. Such entries were picked first, then a sample of the others. Calls follow the shape of the dose curve; as a rule, active = well fitted inhibition curve with a large enough effect; inconclusive = small, poorly fitted or top-dose-only effect; inactive = no such curve, though single readings can be large or run the other way. Potencies beside an inconclusive call are fits to weak or partial responses and may not hold up.

target: Regulator of G-protein signaling 4 (Homo sapiens) (UniProt P49798); assay: Inhibitors of Regulator of G Protein Signaling (RGS) 4: qHTS; details: Transcreener GDP fluorescence polarization, RGS4-accelerated GTP hydrolysis; series mostly up to 114 µM; activity change, negative = inhibition: at the top concentration; also: nearly all actives have a fitted effect of over 75% in size
Method in brief: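 MLSMR compounds (23 nl, pin-transferred) preincubated 10 min at room temperature with a 500nM (2x) first reagent, then RGS4 at 900nM (2x) plus Transcreener GDP mix added; fluorescence polarization (620/688 nm) read before and after 90 min at 30 °C.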
% is scaled to controls: 0 for no effect and ±100 for the full control effect; potency is read from the fitted curve at half-maximal effect; tags tell the direction and shape of the fitted curve.

Chain of UniProt P49798 (P49798 whole entry, looked up): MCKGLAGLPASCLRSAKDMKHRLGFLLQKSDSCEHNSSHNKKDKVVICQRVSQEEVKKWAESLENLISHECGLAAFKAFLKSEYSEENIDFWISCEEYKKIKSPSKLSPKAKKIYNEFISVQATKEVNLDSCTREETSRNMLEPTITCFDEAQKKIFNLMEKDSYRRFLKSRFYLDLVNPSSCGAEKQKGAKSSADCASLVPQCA

| SMILES | Potency | activity change, negative = inhibition |
| --- | --- | --- |
| CCc1nc2c(sc3nc4c(cc32)COC(C)(C)C4)c(=O)n1Cc1ccco1 | inconclusive: 44.7 µM [inhibitor, partial curve, poor fit] |  |
| CC[n+]1c(/C=C2\C=C(C)CC(C)(C)C2)sc2ccccc21 | inconclusive: 44.7 µM [inhibitor, partial curve, poor fit] |  |
| CC1=Nc2cccc3cccc(c23)N1 | inconclusive: 50.1 µM [inhibitor, partial curve, poor fit] |  |
| Cc1ccsc1-c1nc(CSCC(=O)N2CCN(c3ccccc3)CC2)c(C)o1 |  | inactive: -18.5% |
| CCOC(=O)c1ccc(N2CSC3=C(C#N)C(c4ccc(OC)cc4OC)CC(=O)N3C2)cc1 (stereo not given) | inconclusive: 44.7 µM [inhibitor, partial curve, poor fit] |  |
| COc1cc(/C=C2\SC(=S)N(CC(=O)O)C2=O)ccc1OS(=O)(=O)c1ccc(C)cc1 | inconclusive: 79.4 µM [inhibitor, partial curve, poor fit] |  |
| CC1=NN(c2ccc(Cl)cc2)C(=O)C1C(c1ccccc1O)c1c(C)[nH]n(-c2ccc(Cl)cc2)c1=O (stereo not given) | inconclusive: 10 µM [inhibitor, full curve, poor fit] |  |
| O=C1C2C3C=CC(CNS(=O)(=O)c4ccccc4)(O3)C2C(=O)N1c1ccc(Cl)cc1 (stereo not given) | inconclusive: 28.2 µM [inhibitor, full curve, poor fit] |  |
| Cn1c(=O)c2c(nc(SCC(=O)O)n2Cc2cc3c(cc2Cl)OCO3)n(C)c1=O | inconclusive: 89.1 µM [inhibitor, single point] |  |
| COc1ccc(CNn2c(-c3cccs3)nc3ccccc3c2=O)cc1OC | inconclusive: 50.1 µM [inhibitor, partial curve, poor fit] |  |
| CCCCCCCCCCCCCCCC(O)C[N+](C)(C)CCO (stereo not given) | inconclusive: 56.2 µM [inhibitor, partial curve, poor fit] |  |
| CC(=O)NC(=S)NNC(=O)COc1ccc([N+](=O)[O-])cc1 | inconclusive: 31.6 µM [inhibitor, full curve, poor fit] |  |
| Cc1ccc2[nH]c(=O)c(CN(CCc3ccccc3)C(=O)N3CCOCC3)cc2c1 |  | inactive: 11.7% |
| COc1cc(-c2nc(C(=O)NC3CCN(Cc4ccccc4)CC3)cc3c2[nH]c2ccccc23)cc(OC)c1OC |  | inactive: 19.7% |
| CCC(/C=C1\Sc2ccc(OC)cc2N1CCO)=C\c1sc2ccc(OC)cc2[n+]1CCO | inconclusive: 50.1 µM [inhibitor, partial curve, poor fit] |  |
| O=C(CCN1CCCCC1)c1ccc2c(c1)OCCO2 | inconclusive: 11.2 µM [inhibitor, full curve, poor fit] |  |
| CCOC(=O)C1CCCN(C(=O)c2cccc(S(=O)(=O)N(C)c3c(C)n(C)n(-c4ccccc4)c3=O)c2)C1 (stereo not given) |  | inactive: 1.68% |
| COc1ccc(/C=N/Nc2ncc(C(F)(F)F)cc2Cl)c(OC)c1OC |  | inactive: -15% |
| Cc1ccc(Nc2ncnc3nc[nH]c23)cc1 |  | inactive: 8.99% |
| O=S(=O)(c1cccs1)N1CCN(C/C=C/c2ccccc2)CC1 | inconclusive: 89.1 µM [inhibitor, single point] |  |

| SMILES | Potency | activity change, negative = inhibition |
| --- | --- | --- |
| COC(=O)/C=c1/s/c(=C(\C#N)C(=O)NCc2ccco2)n(-c2ccc(C)cc2)c1=O | inconclusive: 56.2 µM [inhibitor, partial curve, poor fit] |  |
| COc1ccc(C(C)=O)cc1COC(=O)c1ccc(N)c([N+](=O)[O-])c1 | inconclusive: 35.5 µM [inhibitor, partial curve, poor fit] |  |
| CC(=O)N1c2ccccc2C2(O)N=C(C)SC12 (stereo not given) | inconclusive: 35.5 µM [inhibitor, partial curve, poor fit] |  |
| COc1ccc2c(c1)C1NC(=S)NC(C)(O2)C1C(=O)Nc1ccc(Cl)cc1 (stereo not given) | inconclusive: 17.8 µM [inhibitor, full curve, poor fit] |  |
| CCCNC(=O)c1ccc(N2CCC3(CC2)CC(c2ccccc2)=NO3)c(N)c1 |  | inactive: 12.9% |
| COc1ccc(C2NC(=O)c3c(sc4c3CCN(C)C4)N2)cc1O (stereo not given) | inconclusive: 89.1 µM [inhibitor, partial curve, poor fit] |  |
| CCOC(=O)NN1C(=O)c2ccccc2NC1c1ccccc1 (stereo not given) | inconclusive: 89.1 µM [inhibitor, single point] |  |
| CCN1CCN(CCOc2cccc(Cl)c2Cl)CC1 |  | inactive: 22.6% [at 56.9 µM] |
| Cc1ccc(NC(=O)CN(C)C(=O)CSc2nc3ccccc3c(=O)n2Cc2ccco2)cc1 | inconclusive: 89.1 µM [inhibitor, single point] |  |
| CN(C)C/C=C(/c1ccc(Br)cc1)c1cccnc1 | inconclusive: 21.2 µM [inhibitor, partial curve, poor fit] |  |
| Cc1c(Cl)cccc1NC(=O)CNC(=O)Cc1c[nH]c2ccccc12 |  | inactive: -16.8% |
| O=C(NCc1ccccc1)c1ccc2nc(-c3ccco3)c(-c3ccco3)nc2c1 | inconclusive: 50.1 µM [inhibitor, partial curve, poor fit] |  |
| N#C/C(=C\c1c[nH]c2ccccc12)C(=O)c1ccc(O)c(O)c1 | inconclusive: 11.9 µM [inhibitor, partial curve, poor fit] |  |
| N=c1c(C(=O)NCc2ccc(F)cc2)cc2c(=O)n3ccccc3nc2n1Cc1cccnc1 | inconclusive: 89.1 µM [inhibitor, single point] |  |
| CC1(c2ccc([N+](=O)[O-])cc2)Nc2ccccc2S1 (stereo not given) | inconclusive: 79.4 µM [inhibitor, partial curve, poor fit] |  |
| C=CCn1c(SCCC(=O)O)nnc1-c1cccs1 |  | inactive: 5.24% |
| CCc1cccc(CC)c1NC(=O)c1cccc(N)c1 | inconclusive: 70.8 µM [inhibitor, partial curve, poor fit] |  |
| O=C(CCc1ccccc1)NNC(=O)CCc1ccccc1 |  | inactive: -1.02% |
| COc1cccc(C(C[N+](=O)[O-])c2c(C)[nH]n(-c3ccccc3)c2=O)c1 (stereo not given) | inconclusive: 63.1 µM [inhibitor, partial curve, poor fit] |  |
| CCCC1CC(C)(C(=O)CSc2n[nH]c(-c3ccccc3)n2)OC1=O (stereo not given) | inconclusive: 79.4 µM [inhibitor, partial curve, poor fit] |  |
